PubChem BioAssay AID504845 (National Center for Advancing Translational Sciences (NCATS), 2011)
In all, about 390,000 compounds went through this assay and about 150 (0.038%) were called active. A call without a number means that no potency is given here. The inconclusive results got no clear call from the source; some entries with a clear call stand among them for comparison. Calls follow the shape of the dose curve; as a rule, active = well fitted inhibition curve with a large enough effect; inconclusive = small, poorly fitted or top-dose-only effect; inactive = no such curve, though single readings can be large or run the other way. Where the call is inconclusive, the potency comes from a doubtful curve fit.

biological target: Regulator of G-protein signaling 4 (Homo sapiens) (UniProt P49798); assay: Inhibitors of Regulator of G Protein Signaling (RGS) 4: qHTS; details: Transcreener GDP fluorescence polarization, RGS4-accelerated GTP hydrolysis; series mostly up to 114 µM; also: nearly all actives have a fitted effect of over 75% in size
Sequence of UniProt P49798 (P49798 whole entry, looked up): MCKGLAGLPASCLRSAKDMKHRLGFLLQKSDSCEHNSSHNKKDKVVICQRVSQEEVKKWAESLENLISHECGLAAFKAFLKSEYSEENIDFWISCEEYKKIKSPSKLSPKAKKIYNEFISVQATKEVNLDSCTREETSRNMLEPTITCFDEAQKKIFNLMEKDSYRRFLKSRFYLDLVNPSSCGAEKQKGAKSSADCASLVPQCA
Summary of the method: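 MLSMR compounds (23 nl, pin-transferred) preincubated 10 min at room temperature with a 500nM (2x) first reagent, then RGS4 at 900nM (2x) plus Transcreener GDP mix added; fluorescence polarization (620/688 nm) read before and after 90 min at 30 °C.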
Potency is read from the fitted curve at half-maximal effect; tags tell the direction and shape of the fitted curve.

Row | SMILES | Potency
1 | CC(C)c1ccc(NC(=O)CSc2ncccc2C(=O)Oc2cccc([N+](=O)[O-])c2)cc1 | inconclusive: 17.8 µM [inhibitor, partial curve, poor fit]
2 | O=C(/C=C/c1ccc([N+](=O)[O-])cc1)Nc1ncc([N+](=O)[O-])s1 | inactive
3 | CC(NC(=O)CCNC(=O)c1ccccc1Cl)c1ccc(-n2ccnc2)cc1 (stereo not given) | inactive
4 | CC(Oc1ccc(-c2ccccc2)cc1)C(=O)N1CCOCC1 (stereo not given) | inactive
5 | COc1ccc(-c2ccc(OC)c(OC)c2OC)c(OC)c1OC | inactive
6 | Cn1cccc1/C=N/N1CCN(c2ccccc2)CC1 | inconclusive: 79.4 µM [inhibitor, single point]
7 | C/C=C(\C)C(=O)N1CC2(CC(c3cccc(NC(=O)COc4ccc(Cl)cc4)c3)=NO2)C[C@@H]1C(N)=O (stereo not given in full) | inactive
8 | Cc1ccccc1OCC(O)Cn1nnc2ccccc21 (stereo not given) | inactive
9 | N#Cc1c(N2CCN(C(=O)c3ccccc3Cl)CC2)nc(-c2ccccc2)c2c1CCCC2 | inactive
10 | Cc1cc(/C=N/NC(N)=S)c(C)n1-c1ccc(Br)cc1 | inconclusive: 79.4 µM [inhibitor, partial curve, poor fit]
11 | O=C(CSc1nnc(-c2ccccc2)o1)Nc1ccccc1F | inconclusive: 50.1 µM [inhibitor, partial curve, poor fit]
12 | Nc1ccc2nc(-c3ccc(-c4nc5ccc(N)cc5[nH]4)cc3)[nH]c2c1 | inconclusive: 31.6 µM [inhibitor, full curve, poor fit]
13 | Cc1c(C(=O)NNc2c(Cl)cccc2Cl)n(C)oc1=O | inactive
14 | O=C(c1ccc(Cl)c(S(=O)(=O)N2CCCC2)c1)N1CCN(c2ccccc2)CC1 | inconclusive: 17.8 µM [inhibitor, full curve, poor fit]
15 | CC1=CC(C)C(C(=O)O)C(C(=O)N2CCN(C)CC2)C1 (stereo not given) | inconclusive: 50.1 µM [inhibitor, partial curve, poor fit]
16 | Nc1cc(N2CCCCC2)nc(N)[n+]1OS(=O)(=O)[O-] | inconclusive: 0.377 µM [inhibitor, full curve, poor fit]
17 | COc1cccc(-n2c(SCC(=O)Nc3nnc(C)s3)nc3c([nH]c4ccccc43)c2=O)c1 | inactive
18 | Cc1ccc(/C=N/n2c(-c3ccco3)n[nH]c2=S)s1 | inconclusive: 79.4 µM [inhibitor, partial curve, poor fit]
19 | CC(C)C[C@@H](CN1CCCC1CN1C(=S)NC[C@@H]1Cc1ccc(O)cc1)N1C[C@H](Cc2ccccc2)N(CCc2ccccc2)C1=S (stereo not given in full) | inactive
20 | CCOC(=O)c1cc(-c2cccs2)nc2c1c(C)nn2-c1ccccn1 | inactive
